Columns and labels:
[1] = Content of oxidative degradation products in atorvastatin calcium stored in air or nitrogen for 24 months at room temperature (HPLC, 250 nm); settings: stored in air, room temperature (25° C.)
[2] = Content of oxidative degradation products in atorvastatin calcium as prepared in air or in a nitrogen/inert atmosphere (HPLC, 250 nm)
[3] = Example 5: whole preparation under inert atmosphere, HPLC 250 nm
[4] = prepared in air, response factor 1.00
[5] = prepared in nitrogen, response factor 1.00

For `CC(C)c1c(C(=O)Nc2ccccc2)c(-c2ccccc2)c(-c2ccc(F)cc2)n1CC[C@@H](O)C[C@@H](O)CC(=O)[O-].CC(C)c1c(C(=O)Nc2ccccc2)c(-c2ccccc2)c(-c2ccc(F)cc2)n1CC[C@@H](O)C[C@@H](O)CC(=O)[O-].[Ca+2]` (relative stereo) [atorvastatin calcium, hemicalcium salt of (R—(R*,R*))-2-(4-fluorophenyl)-β,δ-dihydroxy-5-(1-methylethyl)-3-phenyl-4((phenylamino)carbonyl)-1H-pyrol-1-heptanoic acid], the “Content of ATV-cycloIP in %” value [1] was 0.856%, the “Content of ATV-epoxy dion in %” value [1] was 0.741% and the “content of ATV-cycloFP” value [2, 3] was “below 0.04%”. The “content of ATV-cycloIP” value [2, 3] was “below 0.04%”, the “content of ATV-epoxy dion” value [2, 3] was “below 0.04%” and the “content of ATV-epoxy furan” value [2, 3] was “below 0.04%”. For the same molecule, the “Content of ATV-cycloIP in %” value ([2]; prepared in air, response factor 0.41) was 0.215%, the “Content of ATV-cycloFP in %” value ([2]; prepared in air, response factor 0.48) was 0.193% and the “Content of ATV-epoxy furane in %” value ([2]; prepared in air, response factor 0.72) was 0.093%. For the same molecule, the “Content of ATV-cycloFP in %” value [2, 4] was 0.093%, the “Content of ATV-cycloIP in %” value [2, 4] was 0.088% and the “Content of ATV-epoxy dion in %” value [2, 4] was 0.069%. For the same molecule, the “Content of ATV-epoxy furane in %” value [2, 4] was 0.066%, the “Content of ATV-epoxy dion in %” value ([2]; prepared in air, response factor 1,20) was 0.058% and the “Content of ATV-cycloIP in %” value ([2]; prepared in nitrogen, response factor 0.41) was 0.032%. The “Content of ATV-cycloFP in %” value ([2]; prepared in nitrogen, response factor 0.48) was 0.038%, the “Content of ATV-epoxy furane in %” value ([2]; prepared in nitrogen, response factor 0.72) was 0.016% and the “Content of ATV-cycloFP in %” value [2, 5] was 0.018%. The “Content of ATV-cycloIP in %” value [2, 5] was 0.013%, the “Content of ATV-epoxy dion in %” value [2, 5] was 0.016% and the “Content of ATV-epoxy furane in %” value [2, 5] was 0.011%. For the same molecule, the “Content of ATV-epoxy dion in %” value ([2]; prepared in nitrogen, response factor 1,20) was 0.013%.

From patent publication US9453030B2, “Oxidative degradation products of atrovastatin calcium” (LEK Pharmaceuticals d.d., priority 2004, dated 2016)
